No constants are given. Whether binding was seen depends on the method and setting. Binding seen in cells or lysates may run through a third protein. Some binding calls cover weakened binding; strength is not graded here. For some assays here: Tags and fused reporters may be left off the sequences shown.

Chains of the proteins cited; added tags and fusions are not shown.
UniProt Q96P20: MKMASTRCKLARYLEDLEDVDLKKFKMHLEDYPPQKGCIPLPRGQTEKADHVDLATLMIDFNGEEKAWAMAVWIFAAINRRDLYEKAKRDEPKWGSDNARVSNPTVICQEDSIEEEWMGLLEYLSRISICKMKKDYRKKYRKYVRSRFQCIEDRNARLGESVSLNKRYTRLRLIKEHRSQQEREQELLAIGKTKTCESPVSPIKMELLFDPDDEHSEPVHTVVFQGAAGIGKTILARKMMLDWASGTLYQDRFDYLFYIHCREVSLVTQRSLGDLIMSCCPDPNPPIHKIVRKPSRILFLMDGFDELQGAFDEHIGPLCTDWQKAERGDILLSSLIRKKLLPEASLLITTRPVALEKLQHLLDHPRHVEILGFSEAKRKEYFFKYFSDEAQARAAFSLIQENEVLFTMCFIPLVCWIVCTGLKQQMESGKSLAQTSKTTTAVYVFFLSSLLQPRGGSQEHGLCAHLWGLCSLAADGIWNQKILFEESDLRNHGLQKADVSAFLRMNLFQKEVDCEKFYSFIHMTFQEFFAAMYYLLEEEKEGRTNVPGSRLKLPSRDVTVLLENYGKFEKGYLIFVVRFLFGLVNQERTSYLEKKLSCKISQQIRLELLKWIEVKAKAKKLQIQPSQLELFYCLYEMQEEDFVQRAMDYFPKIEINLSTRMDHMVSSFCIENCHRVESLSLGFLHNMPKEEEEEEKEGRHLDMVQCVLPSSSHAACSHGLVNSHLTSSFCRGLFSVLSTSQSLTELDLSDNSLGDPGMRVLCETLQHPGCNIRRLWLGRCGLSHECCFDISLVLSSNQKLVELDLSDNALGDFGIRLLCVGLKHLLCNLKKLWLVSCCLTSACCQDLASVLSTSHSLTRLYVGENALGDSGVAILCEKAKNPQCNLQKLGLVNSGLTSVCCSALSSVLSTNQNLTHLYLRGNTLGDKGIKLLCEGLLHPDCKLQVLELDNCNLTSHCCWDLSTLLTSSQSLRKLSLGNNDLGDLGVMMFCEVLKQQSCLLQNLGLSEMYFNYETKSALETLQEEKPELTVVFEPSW
UniProt P49023: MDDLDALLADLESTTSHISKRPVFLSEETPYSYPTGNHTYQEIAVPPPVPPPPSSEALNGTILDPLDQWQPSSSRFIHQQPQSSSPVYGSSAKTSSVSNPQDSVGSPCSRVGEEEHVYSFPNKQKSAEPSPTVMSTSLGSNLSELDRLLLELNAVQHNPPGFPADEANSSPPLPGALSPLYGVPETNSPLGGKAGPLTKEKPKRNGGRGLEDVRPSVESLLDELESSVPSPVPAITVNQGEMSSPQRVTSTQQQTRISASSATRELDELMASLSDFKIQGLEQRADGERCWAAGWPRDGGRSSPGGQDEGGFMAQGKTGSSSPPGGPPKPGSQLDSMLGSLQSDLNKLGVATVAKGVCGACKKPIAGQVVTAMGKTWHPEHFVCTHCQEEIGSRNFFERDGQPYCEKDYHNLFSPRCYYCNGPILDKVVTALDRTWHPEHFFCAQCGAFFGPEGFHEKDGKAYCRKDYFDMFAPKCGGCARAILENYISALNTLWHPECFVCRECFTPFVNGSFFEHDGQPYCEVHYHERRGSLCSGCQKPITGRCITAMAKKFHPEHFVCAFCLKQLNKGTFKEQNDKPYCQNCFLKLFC

Common to all, as to assay: co-IP; HEK293T cells co-transfected with Flag- and HA-tagged plasmids; lysis in 50 mM Tris-HCl pH 7.5, 300 mM NaCl, 1% Triton-X, 5 mM EDTA, 10% glycerol; IP with anti-Flag antibody and Protein-G Sepharose, immunoblot with anti-HA and anti-Flag; in some panels cells treated with DMSO or ATP (5 mM) for 2 h; Fig. 6d-g shown as pairs of IPs whose antibodies the legend does not name
A general note: A western blot detects proteins with antibodies after separation by electrophoresis.

The target of experiment [1] is Flag-NLRP3 (human) (UniProt Q96P20).
Experiment [2] concerns the target T1, Flag-P2X7R(27–595) (UniProt Q99572).
T1 sequence: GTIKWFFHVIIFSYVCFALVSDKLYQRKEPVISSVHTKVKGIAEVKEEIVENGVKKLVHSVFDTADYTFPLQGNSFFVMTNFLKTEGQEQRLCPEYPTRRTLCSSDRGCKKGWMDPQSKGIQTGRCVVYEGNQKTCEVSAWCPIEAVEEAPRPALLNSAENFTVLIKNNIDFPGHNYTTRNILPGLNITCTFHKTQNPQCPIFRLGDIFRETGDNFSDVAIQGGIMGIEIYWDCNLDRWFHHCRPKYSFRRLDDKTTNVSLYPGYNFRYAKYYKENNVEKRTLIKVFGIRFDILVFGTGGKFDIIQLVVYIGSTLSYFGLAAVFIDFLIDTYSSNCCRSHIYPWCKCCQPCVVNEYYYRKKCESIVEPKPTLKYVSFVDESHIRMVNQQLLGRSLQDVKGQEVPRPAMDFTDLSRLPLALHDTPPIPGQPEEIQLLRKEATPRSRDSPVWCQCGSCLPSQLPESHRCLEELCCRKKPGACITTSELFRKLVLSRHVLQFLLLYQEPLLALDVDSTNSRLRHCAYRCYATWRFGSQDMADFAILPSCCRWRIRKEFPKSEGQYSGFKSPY

Experiment [3] concerns the target T2, Flag-P2X7R(34–595) (UniProt Q99572).
T2 sequence: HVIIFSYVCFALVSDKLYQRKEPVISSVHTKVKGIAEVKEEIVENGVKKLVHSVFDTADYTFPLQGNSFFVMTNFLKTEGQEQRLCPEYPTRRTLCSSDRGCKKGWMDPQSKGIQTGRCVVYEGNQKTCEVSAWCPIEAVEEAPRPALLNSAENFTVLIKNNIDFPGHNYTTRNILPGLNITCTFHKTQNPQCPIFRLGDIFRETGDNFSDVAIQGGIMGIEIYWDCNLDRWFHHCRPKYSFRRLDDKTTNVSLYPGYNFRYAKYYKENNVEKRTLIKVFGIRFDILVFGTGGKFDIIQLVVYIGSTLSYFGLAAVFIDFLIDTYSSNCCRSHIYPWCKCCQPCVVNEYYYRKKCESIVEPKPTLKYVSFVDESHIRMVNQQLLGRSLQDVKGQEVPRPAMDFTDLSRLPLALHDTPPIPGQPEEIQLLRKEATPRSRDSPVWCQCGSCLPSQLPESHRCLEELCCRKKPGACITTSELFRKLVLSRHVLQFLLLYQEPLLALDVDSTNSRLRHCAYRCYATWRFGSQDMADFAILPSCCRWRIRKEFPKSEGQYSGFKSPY

Experiment [4] deals with T3, Flag-P2X7R(356–595) (UniProt Q99572).
T3 sequence: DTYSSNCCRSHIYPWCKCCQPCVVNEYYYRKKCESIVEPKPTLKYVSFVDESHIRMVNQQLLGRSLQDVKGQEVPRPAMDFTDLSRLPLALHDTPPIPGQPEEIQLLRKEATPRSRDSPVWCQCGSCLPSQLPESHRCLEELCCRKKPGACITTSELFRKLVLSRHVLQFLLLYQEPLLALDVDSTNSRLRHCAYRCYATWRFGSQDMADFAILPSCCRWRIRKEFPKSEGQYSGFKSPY

In experiment [5] the target is T4, Flag-USP13(1–300) (human) (UniProt Q92995).
T4 sequence: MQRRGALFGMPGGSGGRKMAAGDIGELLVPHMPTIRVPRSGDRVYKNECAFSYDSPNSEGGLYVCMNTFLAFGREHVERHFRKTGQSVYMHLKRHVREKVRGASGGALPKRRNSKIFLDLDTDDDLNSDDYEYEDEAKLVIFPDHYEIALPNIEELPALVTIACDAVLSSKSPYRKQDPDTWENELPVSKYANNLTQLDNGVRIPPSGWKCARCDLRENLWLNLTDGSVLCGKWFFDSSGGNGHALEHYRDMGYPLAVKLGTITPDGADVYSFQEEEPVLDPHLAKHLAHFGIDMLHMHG

For HA-Paxillin (from UniProt P49023 1-591), the binding result in experiment [1] is given as “binds”; in experiment [2], “binds”; in experiment [3] it was “no binding”; in experiment [4], “no binding”; in experiment [5] it was “binds”.

The values above are taken from publication PMC7694937.
